# Hit rate of the full screen: of about 91,000 compounds, about 290 (0.32%) were called active. The shares of active, inactive and inconclusive entries below differ from those in the screen. Calls come from the whole dose curve; as a rule, active = well fitted inhibition curve with a large enough effect; inconclusive = small, poorly fitted or top-dose-only effect; inactive = no such curve, though single readings can be large or run the other way. A potency beside an inconclusive call is a rough fit, not a confirmed value.
# Biological target: Single-stranded DNA cytosine deaminase (Homo sapiens) (UniProt Q9GZX7)
# Sequence of UniProt Q9GZX7 (Q9GZX7 whole entry, looked up): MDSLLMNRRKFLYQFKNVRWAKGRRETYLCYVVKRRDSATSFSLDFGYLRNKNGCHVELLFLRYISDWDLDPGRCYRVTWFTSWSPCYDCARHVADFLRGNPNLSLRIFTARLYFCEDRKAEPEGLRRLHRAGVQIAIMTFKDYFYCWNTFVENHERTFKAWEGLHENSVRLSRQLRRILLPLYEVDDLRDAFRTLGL
# Assay: Primary qHTS assay for inhibitors of Activation Induced Cytidine Deaminase (AID): AID signal; note: nearly all actives have a fitted effect of over 25% in size
# Settings: AID deamination FRET fluorescence, UDG-coupled, 4 h; activity change, negative = inhibition: at 115 µM (top of the series)
# % is set by controls: 0 for no effect and ±100 for the full control effect; potency is the fitted concentration of half-maximal effect; tags give direction and shape of the fitted curve.
Compound,Potency,"activity change, negative = inhibition"
Fc1ccc(-c2nc(Nc3cccc(Cl)c3)nc3c2COc2ccccc2-3)cc1,"inconclusive: 25.1 µM [inhibitor, full curve, poor fit]",–
CSc1ncc(C(=O)Nc2ccccc2C(=O)c2ccccc2)c(C(F)(F)F)n1,–,inactive: -2.72%
COc1ccc(NC(=O)c2cc3c(s2)-c2c(C)cccc2OC3)c(OC)c1,"inconclusive: 25.1 µM [inhibitor, partial curve, poor fit]",–
O=C(CC1Sc2ccc(C(F)(F)F)cc2NC1=O)Nc1ccc(Cl)c(C(F)(F)F)c1 (centres undefined),"inconclusive: 12.6 µM [inhibitor, partial curve, poor fit]",–
CC(C)c1ccc(C(=O)NCc2ccco2)cc1,–,inactive: -0.0248%
CCOc1cccc(CNCCNC(=O)c2nonc2N)c1,"inconclusive: 8.91 µM [inhibitor, full curve, poor fit]",–
Cc1ccccc1NS(=O)(=O)c1nnc(NC(=O)c2ccc(Cl)cc2)s1,"inconclusive: 28.2 µM [inhibitor, full curve, poor fit]",–
Cc1ccc(-c2csc(Nc3ccc(N(C)C)cc3)n2)cc1,–,inactive: 17%
COc1ccc(NC(=O)CCCn2c(=O)c3cccn3c3ccccc32)c(OC)c1,"inconclusive: 79.4 µM [inhibitor, partial curve, poor fit]",–
Cc1ccc(C)n1-c1c(C(=O)NCC(C)c2ccccc2)sc2ncccc12 (centres undefined),"inconclusive: 100 µM [inhibitor, single point]",–
N#Cc1c(SCC(=O)N2CCCC2)nc(N2CCOCC2)c2c1CCCC2,–,inactive: -14.6%
COc1ccc(C(=O)N(Cc2ccc(N(C)C)cc2)Cc2ccco2)cc1Cl,"inconclusive: 79.4 µM [inhibitor, partial curve]",–
Cc1cc(O)c2c(C)c(CC(=O)Nc3nc4ccccc4[nH]3)c(=O)oc2c1,–,inactive: 1.17%
O=C(Nc1ccc2nc(SCCOc3ccccc3)sc2c1)c1cccs1,–,inactive: -5.04%
CCN(C(=O)Cn1ncc2c(=O)oc3ccc(C)cc3c21)c1cc(OC)ccc1OC,"inconclusive: 35.5 µM [inhibitor, full curve]",–
CCOC(=O)c1cc(-c2ccc(C)cc2)n(CCC(=O)Nc2nc3c(C)cccc3s2)c1C,"inconclusive: 25.1 µM [inhibitor, partial curve, poor fit]",–
COc1cccc(Cn2c(=O)n(CC3CCC(C(=O)N4CCCCC4)CC3)c(=O)c3sccc32)c1 (centres undefined),"inconclusive: 15.8 µM [inhibitor, full curve, poor fit]",–
CCC(Sc1nc2c(sc3ccccc32)c(=O)n1CCc1ccccc1)C(=O)N(CC)CC (centres undefined),–,inactive: 16.8%
CCCCCC(=C/c1ccccc1)/C=N/Nc1nc2ccccc2[nH]1,–,inactive: -13.5%
CCn1c2c(c(=O)n3ncc(C(=O)Nc4cc(Cl)ccc4OC)c13)CN(Cc1ccc(OC)cc1)CC2,"inconclusive: 12.6 µM [inhibitor, full curve, poor fit]",–
CCCCN1CC(c2nc3ccccc3n2CCCCOc2cc(C)cc(C)c2)CC1=O (centres undefined),"inconclusive: 50.1 µM [inhibitor, partial curve, poor fit]",–
COc1cccc2cc(C(=O)Nc3ccc(CC(=O)O)cc3)c(=O)oc12,"inconclusive: 89.1 µM [inhibitor, single point]",–

Compound,Potency,"activity change, negative = inhibition"
COc1ccc(Cn2ccc3nc(C)c(C(=O)N4CCN(c5cccc(OC)c5)CC4)cc3c2=O)cc1,"inconclusive: 28.2 µM [inhibitor, full curve]",–
CCCCC1CCC(C(=O)N2CC(=O)Nc3ccc(C)cc3C2c2ccc(F)cc2)CC1 (centres undefined),"inconclusive: 28.2 µM [inhibitor, full curve]",–
CS(=O)(=O)N(Cc1ccccc1)c1ccc(C(=O)Nc2cccc(Cl)c2)cc1,"inconclusive: 7.94 µM [inhibitor, partial curve, poor fit]",–
Cc1cccc(N2CCN(C(=O)c3nn(C)c4c3CS(=O)(=O)c3ccccc3-4)CC2)c1C,"inconclusive: 14.1 µM [inhibitor, full curve, poor fit]",–
COc1ccc(CN2CCc3c(c(=O)n4ncc(C(=O)N5CCN(c6ccccc6F)CC5)c4n3C)C2)cc1,"inconclusive: 50.1 µM [inhibitor, partial curve, poor fit]",–
CCc1ccc(NC(=O)CSc2nnc3[nH]c(=O)cc(-c4ccccc4)n23)cc1,"inconclusive: 2.82 µM [inhibitor, full curve, poor fit]",–
CCN(C(=O)CCc1nc(-c2ccc(C)cc2)no1)c1cccc(C(F)(F)F)c1,"inconclusive: 2.82 µM [inhibitor, full curve]",–
CCOC(=O)C1CCCN(c2nc3c(S(=O)(=O)c4ccc(CC)cc4)nnn3c3ccc(Cl)cc23)C1 (centres undefined),"inconclusive: 79.4 µM [inhibitor, partial curve, poor fit]",–
O=C(NCc1ccccc1Cl)c1ccc(CS(=O)(=O)c2ccc(Br)cc2)o1,"inconclusive: 20 µM [inhibitor, partial curve, poor fit]",–
COc1ccc(Nc2ncnc3sc4c(c23)CCCC4)cc1,–,inactive: -26.1%
Cc1nn2c(=O)cc(COC(=O)c3cccc(NC(=O)COc4ccccc4C)c3)nc2s1,"inconclusive: 15.8 µM [inhibitor, full curve, poor fit]",–
Cc1ccc(N2C(=O)CCSC23C(=O)N(Cc2ccccc2)c2ccccc23)cc1 (centres undefined),"inconclusive: 63.1 µM [inhibitor, partial curve, poor fit]",–
CCN(CC)C(=O)c1ccc2c(c1)N(Cc1ccc(C(F)(F)F)cc1)C(=O)c1ccccc1S2,"inconclusive: 50.1 µM [inhibitor, partial curve, poor fit]",–
COc1cc(NC(=O)N2CCc3c(sc4c3CCCC4)C2c2ccccc2)cc(OC)c1OC (centres undefined),"inconclusive: 17.8 µM [inhibitor, full curve]",–
Cc1cc(C)c(-c2n[nH]c3c2C(c2ccccc2F)N(Cc2ccco2)C3=O)c(O)c1 (centres undefined),"inconclusive: 14.1 µM [inhibitor, full curve, poor fit]",–
CC(=O)N1CCC2(CC1)Oc1ccc(Br)cc1C1CC(c3ccc(Cl)cc3)=NN12 (centres undefined),–,inactive: -10.6%
CC(=O)c1ccc(N2CCN(CCS(=O)(=O)c3ccccc3)CC2)cc1,–,inactive: -2.58%
COCCOc1ccc(NC(=O)CC(C)(C)C)cc1,–,inactive: -1.08%
N#Cc1nc(Cc2ccccc2)oc1NCc1ccc(Cl)cc1,–,inactive: -16.6%
COc1c(Cl)cc(C(=O)N(Cc2ccccc2F)C2CCS(=O)(=O)C2)cc1Cl (centres undefined),"inconclusive: 79.4 µM [inhibitor, partial curve, poor fit]",–
CC(=O)N1CCc2c(sc3c2c(=O)n(Cc2ccccc2)c(=O)n3Cc2ccccc2F)C1,"inconclusive: 15.8 µM [inhibitor, full curve, poor fit]",–
Cc1ccc(-c2onc(C)c2C)cc1S(=O)(=O)N1CCOc2ccc(Cl)cc21,"inconclusive: 31.6 µM [inhibitor, full curve]",–

Compound,Potency,"activity change, negative = inhibition"
CCOc1ccccc1NC(=O)CCCc1nc(-c2ccccc2Cl)no1,"inconclusive: 15.8 µM [inhibitor, full curve, poor fit]",–
Cc1ccc(N(Cc2cccs2)C(=O)C(C)Oc2ccc(Cl)c(C)c2)cc1 (centres undefined),"inconclusive: 20 µM [inhibitor, full curve, poor fit]",–
O=C(CSc1nc(=O)[nH]c2c1CCCC2)NCc1ccccc1Cl,"inconclusive: 100 µM [inhibitor, single point]",–
CC(=O)N1CCCc2cc(S(=O)(=O)N3CCN(c4ccccc4F)CC3)ccc21,"inconclusive: 44.7 µM [inhibitor, partial curve, poor fit]",–
CCOc1ccccc1-c1cc(C(=O)O)c2ccccc2n1,–,inactive: 5.89%
O=C(Nc1cccc(Cl)c1)C1CCCN(c2nn3cc(-c4ccc(F)cc4)nc3s2)C1 (centres undefined),"inconclusive: 79.4 µM [inhibitor, partial curve, poor fit]",–
COc1ccc(OC)c(NC(=O)Cn2c(=O)c3cccn3c3ccccc32)c1,"inconclusive: 100 µM [inhibitor, single point]",–
CCc1c(C)sc(NC(=O)/C=C/c2ccc(OC)cc2)c1C#N,–,inactive: 27.4%
CCOc1ccc(C(=O)c2cn(CC(=O)Nc3ccc4c(c3)OCO4)c3ccc(OC)cc3c2=O)cc1,active: 44.7 µM,–
COc1cccc(N2CCN(C(=O)C3CCCN(S(=O)(=O)c4cccc5nsnc45)C3)CC2)c1 (centres undefined),"inconclusive: 79.4 µM [inhibitor, partial curve, poor fit]",–
CCOc1cccc(CC(=O)NCc2ccc3c(c2)CCN3C(=O)c2ccc(F)cc2)c1OCC,–,inactive: -6.07%
CC(C)(C)c1nnc2sc(-c3ccc4c(c3)OCO4)nn12,–,inactive: -6.62%
Cc1ccc(-n2nc3c(=O)n(CC(=O)NC(C)C)nc(C)c3c2C)cc1,–,inactive: 10.4%
COc1ccc(S(=O)(=O)c2c(Nc3c(C)cccc3C)sc(C(=O)c3ccc4c(c3)OCO4)c2N)cc1,"inconclusive: 56.2 µM [inhibitor, single point]",–
Cc1nc2nc(NC(=O)c3ccc(C(C)(C)C)cc3)[nH]n2c(=O)c1Cl,active: 31.6 µM,–
CCCCc1ccc(-c2csc(-c3nc(-c4ccc(C)cc4)c(C)s3)n2)cc1,–,inactive: 3.35%
CCN(CCc1ccncc1)S(=O)(=O)c1cc(N2C(=O)CCS2(=O)=O)ccc1OC,–,inactive: 13.4%
Cc1cccc(N2CCN(S(=O)(=O)c3ccc4c(c3)C(C(C)C)C(=O)N4)CC2)c1C (centres undefined),"inconclusive: 89.1 µM [inhibitor, single point]",–
O=C(/C=C/c1ccccc1)c1cc2ccccc2oc1=O,"inconclusive: 20 µM [inhibitor, partial curve, poor fit]",–
CCc1ccc(CN(Cc2ccco2)c2cnc(S(C)(=O)=O)nc2C(=O)Nc2c(C)cccc2C)cc1,"inconclusive: 7.94 µM [inhibitor, full curve, poor fit]",–
